The list shows a part of the results. Many values rest on one well or one pass, so single values are uncertain.
Columns and labels:
Experiment in all cases: cell count relative to DMSO control; melanoma cells; higher = more viable cells
Settings in all cases: library dose: standard library concentration; 72 h
G361 = test system: G361
IPC-298 = test system: IPC-298
IST-MEL1 = test system: IST-MEL1
LB2518-MEL = test system: LB2518-MEL
LOXIMVI = test system: LOXIMVI
MEL-HO = test system: MEL-HO
MZ2-MEL = test system: MZ2-MEL
MeWo = test system: MeWo
RPMI7951 = test system: RPMI7951
RVH-421 = test system: RVH-421
SkMel28 = test system: SkMel28
SkMel2 = test system: SkMel2
SkMel30 = test system: SkMel30
SkMel5 = test system: SkMel5
UACC257 = test system: UACC257
UACC62 = test system: UACC62
WM115 = test system: WM115
WM1716 = test system: WM1716
WM1745 = test system: WM1745
WM3526 = test system: WM3526
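Note: cells treated in 1,536-well plates, then fixed and DAPI-stained, with nuclei counted from automated high-throughput microscope images.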

SMILES | cell count (G361) [%] | cell count (IPC-298) [%] | cell count (IST-MEL1) [%] | cell count (LB2518-MEL) [%] | cell count (LOXIMVI) [%] | cell count (MEL-HO) [%] | cell count (MZ2-MEL) [%] | cell count (MeWo) [%] | cell count (RPMI7951) [%] | cell count (RVH-421) [%] | cell count (SkMel28) [%] | cell count (SkMel2) [%] | cell count (SkMel30) [%] | cell count (SkMel5) [%] | cell count (UACC257) [%] | cell count (UACC62) [%] | cell count (WM115) [%] | cell count (WM1716) [%] | cell count (WM1745) [%] | cell count (WM3526) [%]
CC[C@]1(O)C[C@H]2CN(CCc3c([nH]c4ccccc34)[C@@](C(=O)OC)(c3cc4c(cc3OC)N(C=O)[C@H]3[C@@](O)(C(=O)OC)[C@H](OC(C)=O)[C@]5(CC)C=CCN6CC[C@]43[C@@H]65)C2)C1 [vincristine] + C[C@]1(O)C[C@@H](c2nc(-c3ccc4ccc(-c5ccccc5)nc4c3)c3c(N)nccn32)C1 [OSI906] (first compound 0.0005 µM, partner dose 2 µM) | 82.2 | 96 | 96.5 | 83.9 | 48.2 | 98.4 | 90 | 52.5 | 79.7 | 125 | 82.9 | 103 | 60.1 | 51.4 | 76.3 | 53.7 | 47.3 | 36.7 | 77.7 | 56.9
N#CC[C@H](C1CCCC1)n1cc(-c2ncnc3[nH]ccc23)cn1 [ruxolitinib] + Cc1cc(Nc2cc(N3CCN(C)CC3)nc(/C=C/c3ccccc3)n2)n[nH]1 [ENMD2076] (first compound 5 µM, partner dose 0.2 µM) | 76.9 | 90.5 | 90 | 92.5 | 59 | 88.9 | 88.9 | 71.3 | 89.2 | 78.2 | 79.4 | 98.9 | 103 | 68.2 | 86.2 | 86.5 | 85.3 | 78.5 | 62.4 | 80.2
CC[C@]1(O)C[C@H]2CN(CCc3c([nH]c4ccccc34)[C@@](C(=O)OC)(c3cc4c(cc3OC)N(C=O)[C@H]3[C@@](O)(C(=O)OC)[C@H](OC(C)=O)[C@]5(CC)C=CCN6CC[C@]43[C@@H]65)C2)C1 [vincristine] + O=C(O)[C@@H]1[O][Sb](=[O])([O][Sb]2(=[O])[O][C@H]([C@H](O)CO)[C@H](O)[C@H](C(=O)O)[O]2)[O][C@H]([C@H](O)CO)[C@@H]1O [stibogluconate] (first compound 0.0005 µM, partner dose 10 µM) | 97.8 | 113 | 108 | 105 | 49 | 116 | 128 | 117 | 109 | 123 | 104 | 120 | 75.7 | 85.7 | 104 | 65.3 | 98.5 | 55.4 | 103 | 77.3
Cc1cc(Nc2cc(N3CCN(C)CC3)nc(Sc3ccc(NC(=O)C4CC4)cc3)n2)n[nH]1 [Tozasertib] + COc1ccc(Cl)c(Nc2nc3ccccc3nc2NS(=O)(=O)c2cccc(NC(=O)C(C)(C)N)c2)c1 [XL147] (first compound 0.03 µM, partner dose 4 µM) | 71.4 | 70.8 | 57.9 | 55.8 | 96 | 63.3 | 66.5 | 83.6 | 89.5 | 82.7 | 50.1 | 73.7 | 82.2 | 79.1 | 76.6 | 73.3 | 56.4 | 60.5 | 59.5 | 68.6
CC[C@]1(O)C[C@H]2CN(CCc3c([nH]c4ccccc34)[C@@](C(=O)OC)(c3cc4c(cc3OC)N(C=O)[C@H]3[C@@](O)(C(=O)OC)[C@H](OC(C)=O)[C@]5(CC)C=CCN6CC[C@]43[C@@H]65)C2)C1 [vincristine] + OCc1c[nH]c2ccccc12 [Indole-3-carbinol] (first compound 0.0005 µM, partner dose 4 µM) | 119 | 91.5 | 97.2 | 114 | 74 | 99.9 | 99.2 | 89.4 | 60.9 | 90.8 | 98 | 104 | 68.4 | 74.4 | 114 | 61.1 | 91.6 | 40.3 | 84.7 | 67.9
N#CC[C@H](C1CCCC1)n1cc(-c2ncnc3[nH]ccc23)cn1 [ruxolitinib] + CCCS(=O)(=O)Nc1ccc(F)c(C(=O)c2c[nH]c3ncc(Cl)cc23)c1F [PLX4720] (first compound 5 µM, partner dose 0.4 µM) | 83.5 | 89.4 | 99.8 | 143 | 157 | 82.2 | 75.4 | 83.6 | 103 | 73.7 | 62.5 | 115 | 115 | 77.9 | 84 | 94.7 | 93.3 | 79.8 | 87.8 | 61.7
CC[C@]1(O)C[C@H]2CN(CCc3c([nH]c4ccccc34)[C@@](C(=O)OC)(c3cc4c(cc3OC)N(C=O)[C@H]3[C@@](O)(C(=O)OC)[C@H](OC(C)=O)[C@]5(CC)C=CCN6CC[C@]43[C@@H]65)C2)C1 [vincristine] + Clc1ccc(Nc2nnc(Cc3ccncc3)c3ccccc23)cc1 [vatalanib] (first compound 0.0005 µM, partner dose 10 µM) | 6.02 | 19.9 | 19 | 19.5 | 31.4 | 25.7 | 25 | 22.3 | 9.69 | 23.9 | 17.7 | 5.51 | 44.1 | 24.5 | 65.1 | 44.5 | 20.2 | 32.8 | 24 | 27.9
CC[C@]1(O)C[C@H]2CN(CCc3c([nH]c4ccccc34)[C@@](C(=O)OC)(c3cc4c(cc3OC)N(C=O)[C@H]3[C@@](O)(C(=O)OC)[C@H](OC(C)=O)[C@]5(CC)C=CCN6CC[C@]43[C@@H]65)C2)C1 [vincristine] + CO[C@H]1C[C@@H]2CC[C@@H](C)[C@@](O)(O2)C(=O)C(=O)N2CCCC[C@H]2C(=O)O[C@H]([C@H](C)C[C@@H]2CC[C@@H](OCCO)[C@H](OC)C2)CC(=O)[C@H](C)/C=C(\C)[C@@H](O)[C@@H](OC)C(=O)[C@H](C)C[C@H](C)/C=C/C=C/C=C/1C [everolimus] (first compound 0.0005 µM, partner dose 0.1 µM) | 60.9 | 61.7 | 51.6 | 65.4 | 84.6 | 67.9 | 73 | 60.1 | 56.1 | 163 | 41 | 66.3 | 62.8 | 46.8 | 95.6 | 52.8 | 48.5 | 62.6 | 84.2 | 43.9
Cc1cc(Nc2cc(N3CCN(C)CC3)nc(Sc3ccc(NC(=O)C4CC4)cc3)n2)n[nH]1 [Tozasertib] + Nc1nc(F)nc2c1ncn2[C@@H]1O[C@H](CO)[C@@H](O)[C@@H]1O [fludarabine] (first compound 0.03 µM, partner dose 1 µM) | 75.4 | 68 | 71.7 | 84.7 | 81.3 | 60.7 | 77.1 | 75.1 | 57 | 80.4 | 4.63 | 2.17 | 14.3 | 25.5 | 39.9 | 72.6 | 55.8 | 74.3 | 59.5 | 29.9
CC[C@]1(O)C[C@H]2CN(CCc3c([nH]c4ccccc34)[C@@](C(=O)OC)(c3cc4c(cc3OC)N(C=O)[C@H]3[C@@](O)(C(=O)OC)[C@H](OC(C)=O)[C@]5(CC)C=CCN6CC[C@]43[C@@H]65)C2)C1 [vincristine] + Nc1ccn([C@@H]2O[C@H](CO)[C@@H](O)C2(F)F)c(=O)n1 [gemcitabine] (first compound 0.0005 µM, partner dose 0.002 µM) | 35.8 | 56.4 | 34.1 | 53.1 | 57.8 | 54 | 78.6 | 41.6 | 43.5 | 42.2 | 68.9 | 91.4 | 68.9 | 77.6 | 105 | 68.1 | 65.4 | 63.1 | 49 | 60.4
N#CC[C@H](C1CCCC1)n1cc(-c2ncnc3[nH]ccc23)cn1 [ruxolitinib] + C[C@@H](N)c1ccc(C(=O)Nc2ccnc3[nH]ccc23)cc1 [RKI983] (first compound 5 µM, partner dose 2 µM) | 76.6 | 73.2 | 79.2 | 98.2 | 68.5 | 59.7 | 57.1 | 54.8 | 74.5 | 48.9 | 74.3 | 99.5 | 78.8 | 45.2 | 56.3 | 91.2 | 117 | 66.3 | 60.4 | 116
CC[C@]1(O)C[C@H]2CN(CCc3c([nH]c4ccccc34)[C@@](C(=O)OC)(c3cc4c(cc3OC)N(C=O)[C@H]3[C@@](O)(C(=O)OC)[C@H](OC(C)=O)[C@]5(CC)C=CCN6CC[C@]43[C@@H]65)C2)C1 [vincristine] + O=C(O)c1ccc2c(c1)nc(Nc1cccc(Cl)c1)c1ccncc12 [CX4945] (first compound 0.0005 µM, partner dose 2 µM) | 60.8 | 70 | 67.5 | 86.6 | 45.2 | 52.2 | 45 | 87.7 | 48.6 | 39.1 | 46.6 | 56.9 | 61.9 | 98.9 | 102 | 71.1 | 76.3 | 60.5 | 66.3 | 51
N#CC[C@H](C1CCCC1)n1cc(-c2ncnc3[nH]ccc23)cn1 [ruxolitinib] + NC(=O)Nc1cc(-c2cccc(F)c2)sc1C(=O)N[C@H]1CCCNC1 [AZD7762] (first compound 5 µM, partner dose 0.1 µM) | 68.8 | 103 | 97.4 | 76.3 | 63.9 | 77.8 | 106 | 77.1 | 50.4 | 104 | 75.8 | 96.7 | 117 | 82.6 | 103 | 103 | 69.2 | 68.2 | 89.6 | 68.6
N#CC[C@H](C1CCCC1)n1cc(-c2ncnc3[nH]ccc23)cn1 [ruxolitinib] + O=C(Nc1cccc(Cl)c1)Nc1ncc(CCNc2ncnc3ccsc23)s1 [SNS314] (first compound 5 µM, partner dose 0.004 µM) | 63.3 | 90.9 | 43 | 97.6 | 59.1 | 63.1 | 88.9 | 48.7 | 47 | 67.7 | 56.2 | 83.9 | 84.3 | 60.9 | 66.8 | 99.3 | 40 | 50.9 | 69.9 | 50.5
N#CC[C@H](C1CCCC1)n1cc(-c2ncnc3[nH]ccc23)cn1 [ruxolitinib] + O=C(O)c1ccc(-c2c[nH]c3ncc(-c4ccccc4)cc23)cc1C1CCCC1 [GSK650394] (first compound 5 µM, partner dose 0.8 µM) | 53 | 84.9 | 75.3 | 88.8 | 76.5 | 74.9 | 86.5 | 82.1 | 67.5 | 60.8 | 104 | 85.7 | 105 | 67.2 | 76.1 | 93.7 | 108 | 73.7 | 90.7 | 89.7

From the supplement of paper PMC4604168 (melanoma cell lines)
